# Test results from PubChem BioAssay (NCI).
#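 Dose response: 5 concentrations. Exposure: 48 h. Format: 96-well plates. Endpoint: linear interpolation; highest concentration if not reached. GI50 marks 50% less growth. Definition used: TGI = concentration required for complete inhibition of growth.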
# Tested on: NCI-H322M lung
# Assay: NCI anticancer screen, dose series, 48 h
Compound,GI50 [µM],TGI [µM]
C#C[C@]1(O)CC[C@H]2[C@@H]3CC=C4c5sc(NCc6ccccc6)nc5CC[C@]4(C)[C@H]3CC[C@@]21C,3.89,15.7
CC[C@H](C)[C@H]1NC(=O)[C@@H]([C@H](O)C(C)C)NC(=O)[C@@H](C)N(C)C(=O)[C@H](C)N(C)C(=O)[C@H](CC(C)C)NC(=O)[C@H](CC(C)C)N(C)C(=O)[C@H](C)N(C)C1=O,0.202,5.27
O=c1[nH]c(Sc2sc3ccc(Cl)cc3c2CBr)nc(=S)[nH]1,> 100,> 100
CCN(CC)CCOc1ccc(C(=C(c2ccccc2)C2CCCC2)c2ccc(OCCN(CC)CC)cc2)cc1,> 16.3,> 16.3
